By IC50 is meant the dose at which the fit gives 50% viability; a fit beyond the top or the lowest dose is shown as a bound at that dose. For AUC the same curve is integrated over the 256-fold range of doses and scaled to a fraction: 1 means no effect, lower means more sensitive. Any top dose called inferred was derived from the fitted curves, not read from the paper.
Compound: N.N.[Cl][Pt][Cl] [Cisplatin]
Assay: Viability of human cancer cell lines after 72 h of drug (GDSC screen)
Conditions: top dose inferred
Protocol: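 Human cancer cell lines in 384-well plates, medium with 10% serum, drug for 72 h over a 256-fold dose range (nine 2-fold or five 4-fold steps up to the top dose). Adherent lines were fixed and stained with the nucleic acid dye Syto60, suspension lines read with resazurin; signal relative to control wells, capped at 0 and 100%. One two-parameter sigmoid per drug and line, fitted in a mixed model over all curves with the slope shared within a line.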

| Cell Line | AUC | IC50 [µM] |
| --- | --- | --- |
| NH-12 (neuroblastoma, adherent, top dose 10 µM) | 0.864 | > 10 |
| NKM-1 (acute myeloid leukaemia, suspension, top dose 10 µM) | 0.755 | 3.49 |
| NMC-G1 (glioma, adherent, top dose 10 µM) | 0.843 | 9.57 |
| NOMO-1 (acute myeloid leukaemia, suspension, top dose 10 µM) | 0.862 | > 10 |
| NOS-1 (osteosarcoma, adherent, top dose 10 µM) | 0.959 | > 10 |
| NTERA-2 cl.D1 (testis, adherent, top dose 10 µM) | 0.565 | 0.941 |
| NU-DUL-1 (B-cell lymphoma, suspension, top dose 10 µM) | 0.747 | 2.67 |
| NUGC-4 (stomach, adherent, top dose 10 µM) | 0.959 | > 10 |
| NY (osteosarcoma, adherent, top dose 10 µM) | 0.848 | 7.3 |
| OACM5-1 (oesophagus, semi-adherent, top dose 10 µM) | 0.923 | > 10 |
| OACp4C (oesophagus, adherent, top dose 10 µM) | 0.846 | 9.58 |
| OAW-42 (ovary, adherent, top dose 10 µM) | 0.859 | 9.47 |
| OC-314 (ovary, adherent, top dose 10 µM) | 0.873 | 7.3 |
| OCI-AML2 (acute myeloid leukaemia, suspension, top dose 10 µM) | 0.746 | 2.52 |
| OCI-AML3 (acute myeloid leukaemia, suspension, top dose 10 µM) | 0.924 | > 10 |
| OCI-AML5 (acute myeloid leukaemia, suspension, top dose 10 µM) | 0.845 | 6.33 |
| OCI-LY7 (B-cell lymphoma, suspension, top dose 10 µM) | 0.984 | > 10 |
| OCI-LY-19 (B-cell lymphoma, suspension, top dose 10 µM) | 0.768 | 3.46 |
| OCI-M1 (acute myeloid leukaemia, suspension, top dose 10 µM) | 0.936 | > 10 |
| OCUB-M (breast, adherent, top dose 10 µM) | 0.987 | > 10 |
| OCUM-1 (stomach, adherent, top dose 10 µM) | 0.933 | > 10 |

| Cell Line | AUC | IC50 [µM] |
| --- | --- | --- |
| OE19 (oesophagus, adherent, top dose 10 µM) | 0.936 | > 10 |
| OE21 (oesophagus, adherent, top dose 10 µM) | 0.918 | > 10 |
| OE33 (oesophagus, adherent, top dose 10 µM) | 0.905 | > 10 |
| OMC-1 (cervix, adherent, top dose 10 µM) | 0.886 | > 10 |
| ONS-76 (medulloblastoma, adherent, top dose 10 µM) | 0.729 | 2.96 |
| OPM-2 (myeloma, suspension, top dose 10 µM) | 0.992 | > 10 |
| OS-RC-2 (kidney, adherent, top dose 10 µM) | 0.726 | 3.73 |
| OSC-20 (head and neck, adherent, top dose 10 µM) | 0.963 | > 10 |
| OV-7 (ovary, adherent, top dose 10 µM) | 0.891 | > 10 |
| OV-17R (ovary, adherent, top dose 10 µM) | 0.941 | > 10 |
| OV-56 (ovary, adherent, top dose 10 µM) | 0.702 | 2.26 |
| OV-90 (ovary, adherent, top dose 10 µM) | 0.936 | > 10 |
| OVCA420 (ovary, adherent, top dose 10 µM) | 0.964 | > 10 |
| OVCA433 (ovary, adherent, top dose 10 µM) | 0.934 | > 10 |
| OVCAR-4 (ovary, adherent, top dose 10 µM) | 0.874 | > 10 |
| OVCAR-5 (ovary, adherent, top dose 10 µM) | 0.744 | 3.66 |
| OVCAR-8 (ovary, adherent, top dose 10 µM) | 0.905 | > 10 |
| OVISE (ovary, adherent, top dose 10 µM) | 0.855 | > 10 |
| OVK-18 (ovary, adherent, top dose 10 µM) | 0.827 | 7 |
| OVKATE (ovary, adherent, top dose 10 µM) | 0.957 | > 10 |
| OVMIU (ovary, adherent, top dose 10 µM) | 0.956 | > 10 |

| Cell Line | AUC | IC50 [µM] |
| --- | --- | --- |
| OVTOKO (ovary, adherent, top dose 10 µM) | 0.759 | 4.4 |
| P12-ICHIKAWA (T-cell lymphoblastic leukaemia, suspension, top dose 10 µM) | 0.914 | 8.74 |
| P30-OHK (lymphoblastic leukaemia, suspension, top dose 10 µM) | 0.781 | 3.43 |
| P31-FUJ (acute myeloid leukaemia, suspension, top dose 10 µM) | 0.988 | > 10 |
| P32-ISH (Burkitt lymphoma, suspension, top dose 10 µM) | 0.851 | 4.91 |
| PA-1 (ovary, adherent, top dose 10 µM) | 0.696 | 1.92 |
| PA-TU-8902 (pancreas, adherent, top dose 10 µM) | 0.928 | > 10 |
| PA-TU-8988T (pancreas, adherent, top dose 10 µM) | 0.984 | > 10 |
| PANC-02-03 (pancreas, adherent, top dose 10 µM) | 0.937 | > 10 |
| PANC-03-27 (pancreas, adherent, top dose 10 µM) | 0.918 | > 10 |
| PANC-04-03 (pancreas, adherent, top dose 10 µM) | 0.961 | > 10 |
| PANC-08-13 (pancreas, adherent, top dose 10 µM) | 0.864 | > 10 |
| PC-3 [JPC-3] (lung adenocarcinoma, adherent, top dose 10 µM) | 0.97 | > 10 |
| PC-14 (lung adenocarcinoma, adherent, top dose 10 µM) | 0.842 | 5.94 |
| PCI-4B (head and neck, adherent, top dose 10 µM) | 0.768 | 3.55 |
| PCI-6A (head and neck, adherent, top dose 10 µM) | 0.676 | 1.91 |
| PCI-15A (head and neck, adherent, top dose 10 µM) | 0.987 | > 10 |
| PCI-30 (head and neck, adherent, top dose 10 µM) | 0.863 | > 10 |
| PE/CA-PJ15 (head and neck, adherent, top dose 10 µM) | 0.941 | > 10 |

From the supplement of paper PMC4967469
